Source: PubChem BioAssay AID485281 (National Center for Advancing Translational Sciences (NCATS), 2010)
Out of some 350,000 compounds screened, about 260 (0.074%) were called active. The inconclusive results got no clear call from the source; some entries with a clear call stand among them for comparison. The call rests on the fitted dose curve; in most records, active means well fitted inhibition curve with a large enough effect; inconclusive means small, poorly fitted or top-dose-only effect; inactive means no such curve, though single readings can be large or run the other way. A potency beside an inconclusive call is a rough fit, not a confirmed value.

Each compound was assayed against Ferritin light chain (Equus caballus) (UniProt P02791) (assay: qHTS Assay for Identification of Novel General Anesthetics). Settings: apoferritin/1-aminoanthracene competitive binding, fluorescence; activity change, negative = displacement: at 77.5 µM (top of the series).
Chain of UniProt P02791 (P02791 whole entry, looked up): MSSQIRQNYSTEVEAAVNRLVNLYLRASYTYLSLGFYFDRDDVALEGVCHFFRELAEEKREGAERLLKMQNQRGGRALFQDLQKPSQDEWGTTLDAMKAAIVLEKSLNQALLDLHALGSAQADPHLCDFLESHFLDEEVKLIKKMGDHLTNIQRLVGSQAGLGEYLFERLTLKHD
Procedure, shortened: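 Horse-spleen apoferritin (10 uM) was mixed with 50% saturated 1-aminoanthracene in PBS, exposed to compounds for 10 min at room temperature, and read for fluorescence (ex 380 nm, em 535 nm). Competitive displacement was fitted with a four-parameter Hill equation.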
Further: nearly all actives have a fitted effect of over 20% in size.
On the % scale 0 is the no-effect control and ±100 the full control effect; potency means the concentration at half of the fitted maximal effect; tags describe the fitted curve by direction and shape.

Activity change, negative = displacement, inactive:
Cc1cc(Nc2ccccc2)n(-c2nc3ccccc3[nH]2)n1 -7.32%, O=C(NC(=S)Nc1ccccc1N1CCCC1)c1ccc(F)cc1 -18.2%, N/C(=N\OC(=O)COc1ccccc1)c1cccnc1 -2.25%, Cc1ccc(-c2cc(C(F)(F)F)n3nc(C(=O)Nc4sc5c(c4C#N)CCC(C)C5)cc3n2)cc1 (centres undefined) -3.5%, Cc1ccc(S(=O)(=O)/N=C2/NC(=O)/C(=C\c3cc(Br)cc(Br)c3O)S2)cc1 -5.42%, CN(c1cnn(-c2ccccc2)c(=O)c1Cl)n1cccc1 -2.23%, COc1ccc(C(=O)N2CCN(CCNC(=O)C(=O)Nc3ccc(Br)cc3)CC2)cc1 -3.32%, CCc1ccccc1-n1c(SCC(=O)Nc2ccc(C)cc2)nc2n[nH]c(C)c2c1=N -12.2%, Cc1cccc(NS(=O)(=O)c2ccc3c(c2)n(C)c(=O)n3C)c1C -6.52%, CCCOc1ccc(/C=C2\SC(N)=NC2=O)cc1OC -2.45%, CCn1c(Oc2ccccc2C)nc2c1c(=O)n(C)c(=O)n2C -6.1%, CN(C)CCNC(=O)c1ccc2nc(Cc3ccccc3)oc2c1 -4.78%, Cc1ccc(NC(=O)c2ccc(CN3CCc4ccccc4C3)cc2)cc1 -12.3%

Potency, inconclusive:
CCn1c(SCC(=O)Nc2sc3c(c2C#N)CCCC3)nnc1-c1ccco1 8.91 µM [inhibitor, partial curve], Cc1cc(C)n(-c2ccc(NC(=O)C3CCN(Cc4ccc(C)o4)CC3)cc2)n1 35.5 µM [inhibitor, partial curve], O=C1c2cc(F)ccc2OC2(CCNCC2)C12CC(c1ccccc1)=NO2 (centres undefined) 35.5 µM [inhibitor, partial curve], COc1ccc(N=C2SC(C(=O)Nc3ccc4c(c3)OCO4)CC(=O)N2C)cc1 (centres undefined) 15.8 µM [inhibitor, partial curve], CC(=O)OCc1c(C(F)(F)F)nn(C)c1Sc1ccccc1 31.6 µM [inhibitor, single point], CC1(C)Cc2nc3sc4c(=O)n(Cc5ccccc5)cnc4c3cc2CS1 50.1 µM [inhibitor, single point], COC(=O)CSc1nnc(SCc2ccc(Cl)cc2)s1 12.6 µM [inhibitor, partial curve], CC(C)COC(=O)Cn1cnc2ccc(Br)cc2c1=O 28.2 µM [inhibitor, partial curve], O=S(=O)(NCCC1=CCCCC1)c1ccc(F)cc1 7.08 µM [inhibitor, full curve], Cc1ccc(C)c2[nH]c(=O)c(CN(CCN3CCCC3)C(=O)Nc3ccc(F)cc3)cc12 17.8 µM [inhibitor, partial curve], Cc1ccc(C)c(-c2nn(CC(=O)Nc3cc(F)ccc3F)c(=O)c3c2CCCC3)c1 22.4 µM [inhibitor, partial curve], COc1cc(C(=O)Nc2ccc(Cl)c(-c3nc4ncccc4o3)c2)cc(OC)c1OC 22.4 µM [inhibitor, partial curve], COCCn1c(SCC(=O)N(C(C)C)C(C)C)nnc1-c1cc2ccccc2cc1O 35.5 µM [inhibitor, single point], Cc1ccc2onc(CC(=O)Nc3cc(F)ccc3F)c2c1 14.1 µM [inhibitor, partial curve], COc1ccc(/C=N\NC(=O)c2ccc([N+](=O)[O-])c(C)c2)cc1COc1ccccc1C(N)=O 7.94 µM [inhibitor, partial curve], O=C1Nc2ccccc2C12OCC(COc1ccc(Cl)cc1)O2 (centres undefined) 56.2 µM [inhibitor, single point], CC(C)(C)c1csc(NC(=O)c2ccc(Cl)s2)n1 20 µM [inhibitor, partial curve], CC(C)NCC(O)COC1C2CC3CC(C2)CC1C3 (centres undefined) 20 µM [inhibitor, partial curve], Cc1ccccc1OCC(=O)N/N=C/c1ccc(Sc2nc3ccccc3s2)o1 17.8 µM [inhibitor, partial curve], COc1ccc(NC(=O)Cn2nnc(C(=O)Nc3ccccc3C)c2N)cc1 5.62 µM [inhibitor, partial curve], CCc1nnc(NC(=O)CSc2nnc(-c3ccccc3OC)n2-c2ccc(C)cc2)s1 20 µM [inhibitor, partial curve], CCCCOC(=O)c1ccc(NC(=O)c2ccc3c(c2)CCCN3S(C)(=O)=O)cc1 11.2 µM [inhibitor, single point], CC(NC(=O)NC12CC3CC(CC(C3)C1)C2)c1ccc2c(c1)OCO2 (centres undefined) 11.2 µM [inhibitor, partial curve], CCN(CC1CCCO1)C(=O)c1cc(COc2ccc(F)cc2F)on1 (centres undefined) 14.1 µM [inhibitor, partial curve], C/C=C(/C)C(=O)O[C@@H]1c2c(ccc3ccc(=O)oc23)O[C@@H]1C(C)(C)OC(=O)/C(C)=C\C 56.2 µM [inhibitor, single point], Cc1nn(-c2ccccc2)c(C)c1/C=N/NC(=O)c1ccccc1NS(=O)(=O)c1cccs1 50.1 µM [inhibitor, single point], O=C(CCC(=O)Nc1cccc([N+](=O)[O-])c1)N/N=C/c1cccs1 22.4 µM [inhibitor, partial curve], Cn1ncc(Cl)c1C(=O)NCc1ccc(Cl)cc1 44.7 µM [inhibitor, single point], CC1(C)CC2CC(C)(CN2c2ncnc3ccc(Br)cc23)C1 (centres undefined) 20 µM [inhibitor, single point], CN(CCO)C(=O)C1CCN(c2ncc(C(F)(F)F)cc2Cl)CC1 28.2 µM [inhibitor, partial curve], Nc1ccc2c(c1)CC(=O)c1ccccc1S2 28.2 µM [inhibitor, single point]
